# In all, about 150,000 compounds went through this assay and about 540 (0.36%) showed an effect of 50% or more. This is one part of the list.
# Tested on: Plasmodium falciparum
# Experiment: Primary screen in NF54 nanoGlo assay, in single point, at 2uM, 72h; a lower Z score goes with more inhibition
# Assay type: functional, Erythrocyte
# Conditions: timepoint 72 hour
Structure (SMILES),% Inhibition [%],Z score
CC(C)(Cc1ccc(O)cc1)C(=O)N[C@H]1CCn2cncc21,-1,0.14
Cc1cc(Cl)ccc1OCC(=O)Nc1sc2c(c1C#N)CCCCC2,-11,1.34
Cc1n[nH]c(C)c1CC(=O)N1CCC(c2c[nH]c3ccccc23)CC1,-3,0.42
Cc1ccc2c(c1)CN(C(=O)[C@H](C)c1cnn(C)c1)C(C)(C)C2,-5,0.71
CC1(C)C[C@@H](NCc2ncc[nH]2)CCN(C(=O)OC(C)(C)C)C1,-11,1.07
COc1ccc([C@@H](C)CNC2(CO)CCCC2)cc1,0,0.05
COCCN1C[C@@H](Cc2ccc(O)c(C)c2)CC1=O,16,-2
COc1ccc(C)cc1CN[C@@H](Cc1c[nH]c2ccccc12)C(=O)O,17,-2.02
O=C(c1cc(-c2ccccc2)nc2ccccc12)N(Cc1ccco1)C1CC1,1,-0.1
CC1CN(CC(=O)NCC(C)c2nc3ccccc3s2)C(C)CO1 (stereo not given),-2,0.25
CCN1CCN(CCC(=O)Nc2ccc3c(c2)OCO3)CC1,-5,0.77
O=S(=O)(Cc1ccccc1F)N1CCOc2ncccc21,-19,3.54
O=C(c1cncc(Br)c1)N1CCC[C@H](CN2CCCC2)CC1,-1,0.18
CS(=O)(=O)CCN1CC[C@@]2(CCCN(C3CCCC3)C2=O)C1,-3,0.53
CC(=O)N1CCc2cc(-c3ccc(C(=O)NCCC(C)C)cc3)ccc21,40,-4.5
CCn1nc(C)cc1C(=O)N(CC1CCN(CCc2ccccc2C)CC1)C1CCCC1,5,-0.71
COc1ccc(Br)c2c1CCN(C(=O)CO)CC2,-4,0.59
O=C(N[C@H]1CCN(C2CCCCC2)C1=O)c1ccnc(-c2ncc[nH]2)c1,-4,0.4
C[C@@H](NC1CCCCCCC1)C(=O)OC(C)(C)C,-8,0.69
COc1ccc(NC(=O)C(N)=O)c(OC)c1,-1,0.14
Cc1cc(C)n(CCCN(C)Cc2cnn(-c3cccc(F)c3)c2)n1,-7,1.1
NC(=O)COc1ccccc1Br,-6,0.86
O=C(Cc1ccc(F)cc1)NCc1ccc(OCc2cccnc2)cc1,-10,1.87
CC(C)(NCC#N)c1ccc(F)c(F)c1,-18,2.07
O=C(NC[C@@H](CO)Cc1ccccc1)c1sccc1OC(F)F,-10,0.89
C=CCN1CC2(CCC1=O)CCN(C[C@H]1Cc3c(C)nc(C)nc3O1)CC2,-4,0.49
CC1CCCC(CCN2CCCN(C(N)=O)CC2)C1 (stereo not given),25,-2.79
CCC(=O)NCCn1cnc(C2CC2)cc1=O,-3,0.61

Structure (SMILES),% Inhibition [%],Z score
CN=C(NCCc1ccc(OC(F)F)cc1)NCc1ncccc1C,-6,0.62
Cc1ccc(N2CCC[C@@]3(CCC(=O)N(CCc4c[nH]cn4)C3)C2)nc1,-17,2.21
Cc1cc(C(=O)N2C[C@@H]3CC[C@H]2CN(S(=O)(=O)N(C)C)C3)c(C)o1,4,-0.48
O=C(O)C1CC[C@@H](c2ccccc2)N1C(=O)Cc1ccc(O)cc1 (stereo not given in full),-19,2.06
COc1ccc(CCNC(=O)CN2C[C@H](C)[C@@](O)(C3CCC3)C2)cc1,-3,0.57
O=C(c1ncccc1O)N1CCCC1CC(O)c1cccs1 (stereo not given),0,-0.04
CS(=O)(=O)c1ccc(OC[C@@]2(CNC(=O)C3CCC3)C[C@@H](O)[C@@H](O)C2)cc1,0,0.01
O=C(c1cnn2c(-c3ccccc3Cl)ccnc12)N1CCC(Cc2ccccc2)CC1,-1,0.07
CCC[C@@H](CC(=O)O)NC(=O)c1cccc(=O)[nH]1,-5,0.48
Cn1cccc1CNc1ccc(C(=O)N2CCCCC2)nc1,-1,0.09
CC(C)[C@H]1CN(c2ncc(F)c(N3CCOCC3)n2)C[C@@H]1N(C)C,25,-3.2
Cc1nc(-c2cnn3cc(CCO)cnc23)n(C2Cc3ccccc3C2)n1,-10,2.08
O=C(CN1CCCc2sccc2C1=O)NCc1nc(-c2ccc(F)cc2)c[nH]1,-2,0.25
CCCCC1CCC(CNC(=O)Nc2nc(CS(C)(=O)=O)no2)CC1 (stereo not given),1,-0.24
O=C(C[C@H]1CCCS(=O)(=O)C1)Nc1cnccc1-c1cccc(F)c1,-1,0.23
COCCn1nnnc1[C@]1(N2CCCC2)CCN(C(=O)COCc2ccccc2)C1,-1,0.13
O=C1N(CCc2c[nH]c3ccccc23)c2ccccc2NC12CCNCC2,-1,0.23
CCc1nnc(CNc2nc3c(s2)c(C)nn3C)s1,-3,0.59
CNC(=O)CCn1ncc(N(C)Cc2ccccc2)cc1=O,-4,0.43
COCCCN1C(=O)CC[C@@H]2CN(c3ncnc4[nH]ccc34)CC[C@@H]21,2,-0.29
CC1CN(c2ccncc2Cl)CC1N1CCOCC1 (stereo not given),-7,0.86
C[C@@H](CNC(=O)NCCc1cn2c(n1)CCCC2)Oc1ccccc1,-7,0.83
Cc1nccn1CCNC(=O)c1cc2cccc(Cl)c2n1C,-16,1.43
CCCn1nccc1S(=O)(=O)NC[C@H]1CCN(CCOC)C1,-29,2.57
O=C1C[C@H](c2noc(-c3cccc4c3OCCO4)n2)CN1CC1CCC1,3,-0.62
CCCCc1noc(Cn2cc([C@H](O)c3ccccc3)cn2)n1,-5,1.06
CC1(C)[C@@H](O)CCN1C(=O)c1cncc(O)c1,-2,0.29
